{"source": "PubChem BioAssay AID624296", "about": "(National Center for Advancing Translational Sciences (NCATS), 2012)", "note": "Hit rate of the full screen: of about 350,000 compounds, about 9,900 (2.8%) were called active. Inconclusive results, whose numbers are uncertain, are shown with a selection of clear calls. The call rests on the fitted dose curve; in most records, active means well fitted activation curve with a large enough effect; inconclusive means small, poorly fitted or top-dose-only effect; inactive means no such curve, though single readings can be large or run the other way. Potencies of inconclusive entries are left out as doubtful fits. Potency means the concentration at half of the fitted maximal effect; tags describe the fitted curve by direction and shape.", "data": [{"assay": "A quantitative high throughput screen for small molecules that induce DNA re-replication in MCF 10a normal breast cells; further: nearly all actives have a fitted effect of over 50% in size; on activity, positive = re-replication: % of control where 0% means no effect.", "conditions": "MCF 10A DNA re-replication, Hoechst nuclear intensity, 48 h; activity, positive = re-replication: at 46.1 µM (top of the series)", "values": [{"smiles": "COc1ccc(/C=C/C(=O)OCC(=O)N2CC(=O)Nc3ccccc32)cc1S(=O)(=O)N1CCOCC1", "Potency": "inconclusive [activator, single point]"}, {"smiles": "Fc1ccc(Br)cc1C1C=C(c2ccc(Br)s2)Nc2ncnn21", "note": "(stereo not given)", "Potency": "inconclusive [activator, full curve, poor fit]"}, {"smiles": "Cc1ccccc1Nc1ncnc2c1cnn2Cc1ccccc1", "Potency": "inconclusive [activator, partial curve, poor fit]"}, {"smiles": "c1ccc(-c2nc[nH]c2-c2ccccc2)cc1", "Potency": "inconclusive [activator, single point]"}, {"smiles": "CC1=NN(c2cccc(Cl)c2)C(=O)C12CC(C)=C(C)CS2", "note": "(stereo not given)", "Potency": "inconclusive [activator, single point]"}, {"smiles": "Cn1c(=O)c(C(=O)CN2CCCCCC2)c(N)n(Cc2ccccc2)c1=O", "Potency": "inconclusive [activator, single point]"}, {"smiles": "C=C(C(=O)c1ccccc1)C(C(=C)C(=O)c1ccccc1)c1ccc(OC)cc1", "Potency": "inconclusive [activator, full curve, poor fit]"}, {"smiles": "COC(=O)c1ccc(NC(=S)N(Cc2cccnc2)Cc2ccco2)cc1", "activity, positive = re-replication": "inactive: 2.95%"}, {"smiles": "O=C(Nc1cccc(C(F)(F)F)c1)c1cc2c(s1)-c1ccccc1OC2", "Potency": "inconclusive [activator, partial curve, poor fit]"}, {"smiles": "CC(C)=CCOc1c2ccoc2c(OCC=C(C)C)c2oc(=O)ccc12", "Potency": "inconclusive [activator, single point]"}, {"smiles": "CCCCCCCNC(=O)C1(CC2CC(c3ccc(Cl)cc3)=NO2)CCN(C(=O)C2(C)CC2)CC1", "note": "(stereo not given)", "activity, positive = re-replication": "inactive: 24.2%"}, {"smiles": "Cc1nn(C)c(Cl)c1NC(=O)OCc1ccc(Cl)cc1Cl", "Potency": "inconclusive [activator, partial curve]"}, {"smiles": "CC(C)(C)c1nn2cnnc2n(/N=C/c2cccc3ccccc23)c1=O", "Potency": "inconclusive [activator, partial curve, poor fit]"}, {"smiles": "COc1ccc(/C=N\\N=C2/SC(CC(=O)O)C(=O)N2c2ccc(O)cc2)cc1", "note": "(stereo not given)", "Potency": "active: 16.4 µM"}, {"smiles": "CN(C(=O)c1ccc(NC(=O)Cc2cccc(NC(=O)C3CCCN(C(=O)C4CCCC4)C3)c2)cc1)C1CC1", "note": "(stereo not given)", "Potency": "inconclusive [activator, full curve, poor fit]"}, {"smiles": "COc1ccc(NC(=S)NC(NC(=O)C(C)C)C(Cl)(Cl)Cl)c([N+](=O)[O-])c1", "note": "(stereo not given)", "activity, positive = re-replication": "inactive: 10.9%"}, {"smiles": "COc1ccc(C)cc1NC(=O)c1ccc(CN2CCN(c3ccccc3)CC2)cc1", "Potency": "inconclusive [activator, partial curve, poor fit]"}, {"smiles": "O=C(O)c1ccccc1Sc1c([N+](=O)[O-])cc(C(F)(F)F)cc1[N+](=O)[O-]", "Potency": "inconclusive [activator, single point]"}, {"smiles": "Cc1ccc(OCc2nc3c4c(ncn3n2)-c2ccccc2CC42CCCC2)cc1", "activity, positive = re-replication": "inactive: -43%"}, {"smiles": "CN1CCN(CCOc2cccc(Cl)c2)CC1", "activity, positive = re-replication": "inactive: 4.7%"}, {"smiles": "O=C(CCNS(=O)(=O)c1ccccc1)OCC(=O)c1ccc(Cl)cc1", "activity, positive = re-replication": "inactive: 2.17%"}, {"smiles": "COCCn1c(=NC(=O)c2cc(Cl)sc2Cl)sc2cc(S(N)(=O)=O)ccc21", "Potency": "inconclusive [activator, single point]"}, {"smiles": "CCOC(=O)N1CCC(NC(=O)c2cc(C(=O)NCc3ccc(F)cc3)ccc2CO)CC1", "activity, positive = re-replication": "inactive: -31.5%"}, {"smiles": "Cc1cccc(N(C(=O)c2nsc(Cl)c2Cl)C(C(=O)NC2CCCC2)c2ccc(O)cc2)c1C", "note": "(stereo not given)", "activity, positive = re-replication": "inactive: 17.1%"}, {"smiles": "O=C(CN1C(=O)C2CC=CCC2C1=O)Nc1nnc(SCc2ccc(Cl)cc2)s1", "note": "(stereo not given)", "Potency": "inconclusive [activator, partial curve, poor fit]"}, {"smiles": "O=C(Nc1ccc2c(c1)CCCN2C(=O)c1ccco1)c1cc([N+](=O)[O-])ccc1Cl", "Potency": "inconclusive [activator, full curve]"}, {"smiles": "O=C(Nc1ccccc1)Nc1cccc(C(F)(F)F)c1", "activity, positive = re-replication": "inactive: -0.362%"}, {"smiles": "O=C(O)CCCNc1c(C(=O)Nc2ccc(Cl)cc2)cc([N+](=O)[O-])cc1[N+](=O)[O-]", "Potency": "inconclusive [activator, partial curve, poor fit]"}, {"smiles": "O=C(Nc1cccc(S(=O)(=O)NC2=NCCC2)c1)c1ccccc1F", "activity, positive = re-replication": "inactive: -0.0675%"}, {"smiles": "CC(=O)OC[C@H]1O[C@@H](O[C@H]2C[C@]3(C)C(C[C@@H](O)C4C([C@]5(C)CC[C@@H](C(C)(C)O)O5)CC[C@]43C)[C@@]3(C)CC[C@H](O)C(C)(C)C23)[C@H](O[C@@H]2O[C@@H](C)[C@H](O)[C@@H](O)[C@H]2O)[C@@H](O)[C@@H]1O", "note": "(stereo not given in full)", "activity, positive = re-replication": "inactive: 16%"}, {"smiles": "CC1CCN(CC(=O)Nc2ccccc2Sc2ccccc2)CC1", "Potency": "active: 14.6 µM"}, {"smiles": "CSc1ccc(S(=O)(=O)NCC(=O)OC(C)C(=O)NCc2ccccc2)cc1[N+](=O)[O-]", "note": "(stereo not given)", "Potency": "inconclusive [activator, single point]"}, {"smiles": "O=[N+]([O-])c1ccc(O)c(/C=N/n2cnc3ccccc32)c1", "activity, positive = re-replication": "inactive: 28.4%"}, {"smiles": "CCOc1c(Br)cc(CNc2ccc3c(c2)OCCO3)cc1OC", "Potency": "active: 1.3 µM"}, {"smiles": "O=C(Cn1c2ccc(F)cc2c2nc3n(c(=O)c21)CCS3)Nc1ccc(Cl)cc1F", "Potency": "inconclusive [activator, single point]"}, {"smiles": "Cn1c(=O)cc(SCC(=O)Nc2ccc3c(c2)OCO3)c2ccccc21", "activity, positive = re-replication": "inactive: 13%"}, {"smiles": "COc1cnc(SCc2c(Cl)cccc2Cl)nc1Cl", "Potency": "inconclusive [activator, single point]"}, {"smiles": "CC(=O)Nc1ccc(S(=O)(=O)n2cnc3cc(C)c(C)cc32)cc1", "activity, positive = re-replication": "inactive: 16.3%"}, {"smiles": "Cc1ccc(CNC(=O)c2cc(=O)c3cc(C)ccc3o2)cc1", "Potency": "inconclusive [activator, single point]"}, {"smiles": "NNC(=O)c1ccc(OCC2CC(c3ccc(Cl)cc3)=NO2)cc1", "note": "(stereo not given)", "activity, positive = re-replication": "inactive: 16.3%"}, {"smiles": "O=C(N/N=C/c1cc(Br)c(Br)o1)c1ccc2c(c1)OCCO2", "Potency": "active: 13 µM"}, {"smiles": "COCCn1nnnc1C(c1ccc(OC)cc1)N1CCC(C)CC1", "note": "(stereo not given)", "activity, positive = re-replication": "inactive: -2.98%"}, {"smiles": "CN(c1ccc(C(=O)Nc2ccc(Cl)cn2)cc1)S(=O)(=O)c1ccccc1", "activity, positive = re-replication": "inactive: 28.2%"}, {"smiles": "c1ccc(C2=Nn3c(nnc3-c3cc(-c4ccccc4)n[nH]3)SC2)cc1", "Potency": "inconclusive [activator, single point]"}, {"smiles": "COc1ccccc1C(=O)NC(=S)Nc1ccc(N2CCOCC2)c(Cl)c1", "Potency": "inconclusive [activator, single point]"}, {"smiles": "O=C(N/C(=C\\c1ccccc1)C(=O)N1CCCCC1)c1ccc(Br)o1", "activity, positive = re-replication": "inactive: -12.9%"}, {"smiles": "CCOC(=O)C1CCCN(C(=O)c2cc3ccccc3oc2=O)C1", "note": "(stereo not given)", "activity, positive = re-replication": "inactive: -2.78%"}, {"smiles": "CCc1c(C)sc(NC(=O)c2ccc(Br)o2)c1C(=O)OC", "Potency": "inconclusive [activator, partial curve, poor fit]"}, {"smiles": "CCc1ccccc1NC(=S)N(CCN(C)C)C(C)c1cccnc1", "note": "(stereo not given)", "activity, positive = re-replication": "inactive: 2.25%"}, {"smiles": "Cc1cccc(CCN2CCN=C2N(C)C)c1", "activity, positive = re-replication": "inactive: -0.923%"}, {"smiles": "CN(CC(=O)Nc1ccc(F)cc1)C(=O)COC(=O)Cc1c(F)cccc1Cl", "Potency": "inconclusive [activator, partial curve, poor fit]"}, {"smiles": "CC1CCN(C(=O)Cn2nnc(-c3ccc(N)cc3)n2)CC1", "activity, positive = re-replication": "inactive: 9.63%"}, {"smiles": "O=C(C[C@H]1C/C=C\\CC[C@@H](Cc2ccc(F)cc2)C(=O)O[C@@H](c2ccccc2)CNC1=O)N[C@H](CO)Cc1ccccc1", "Potency": "inconclusive [activator, single point]"}, {"smiles": "O=C(NCC1CCCO1)c1cc(S(=O)(=O)N2CCOCC2)c(Cl)cc1Cl", "note": "(stereo not given)", "Potency": "inconclusive [activator, single point]"}, {"smiles": "N#CC(C#N)=C1C(=O)N(CCN2CCCCC2)c2ccccc21", "Potency": "inconclusive [activator, partial curve, poor fit]"}, {"smiles": "C=C[C@@H]1c2cccc(C)c2N(S(=O)(=O)c2ccc(C)cc2)[C@H](c2ccc(OC(C)=O)cc2)C1(C#N)C#N", "Potency": "inconclusive [activator, partial curve, poor fit]"}, {"smiles": "Cc1ccc(Cl)cc1NC(=O)c1cc2ccccc2cc1O", "Potency": "active: 7.31 µM"}, {"smiles": "CC1C(C#N)=C(N)OC2=C1C(=O)CC(C)(C)C2", "note": "(stereo not given)", "activity, positive = re-replication": "inactive: -194% [at 0.0737 µM]"}, {"smiles": "CN(CC(=O)Nc1sccc1C(N)=O)S(=O)(=O)c1ccc(Cl)cc1", "Potency": "inconclusive [activator, single point]"}, {"smiles": "O=C(Nc1ccc(NC(=S)NC(=O)C(c2ccccc2)c2ccccc2)cc1)c1ccccc1", "Potency": "inconclusive [activator, partial curve, poor fit]"}, {"smiles": "O=C(Nc1ccc(Cl)c(Cl)c1)Nc1nccs1", "Potency": "active: 13 µM"}, {"smiles": "CCOC(=O)C(=O)c1c(C)cc2ccccn12", "activity, positive = re-replication": "inactive: -2.06%"}, {"smiles": "Nc1c2c(nc3ccc(Br)cc13)N(Cc1ccccc1)CC2", "Potency": "inconclusive [activator, single point]"}, {"smiles": "Cc1c(Br)c(-c2n[nH]c(=S)n2Cc2ccco2)nn1C", "activity, positive = re-replication": "inactive: -1.31%"}, {"smiles": "COc1cccc(OC)c1C(=O)Oc1ccc2c(c1)O/C(=C\\c1ccncc1)C2=O", "Potency": "inconclusive [activator, single point]"}, {"smiles": "Cc1ccc(C(=O)NCCSC2CCCCC2)cc1S(=O)(=O)Nc1ccccc1", "activity, positive = re-replication": "inactive: 13.7%"}, {"smiles": "Cc1cccc(C)c1NC(=O)C1CCCN1S(=O)(=O)c1ccc2c(c1)n(C)c(=O)c(=O)n2C", "note": "(stereo not given)", "activity, positive = re-replication": "inactive: -1.97%"}, {"smiles": "COc1cc(NC(=O)C2=C(N3CCOCC3)/C(=C\\c3ccc(N(C)C)cc3)CCC2)cc(OC)c1OC", "Potency": "active: 18.4 µM"}, {"smiles": "COC(=O)C(Cc1ccc(O)cc1)NC(=O)CCc1nc2ccccc2s1", "note": "(stereo not given)", "Potency": "inconclusive [activator, single point]"}, {"smiles": "COc1ccc(Nc2c3c(nc4ccc(C)cc24)CCC3)cc1", "activity, positive = re-replication": "inactive: -4.08%"}]}]}
